Variants at the background level are over-represented here.
B1: tRNA (parent)
chain: CUCUCGGUAGCCAAGUUGGUUUAAGGCGCAAGACUUUAAUUUAUCACUACGAAAUCUUGAGAUCGGGCGUUCGACUCGCCCCCGGGAGAUUUUUUCCUCGAGCAA

Variants of: B1
Experiment: nonsense suppression (GFP-seq) (ratio to wild type); higher = more function; SUP4oc tRNA, yeast GFP reporter sort-seq
How it was run: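 Yeast were grown in raffinose/galactose medium with 80 mg/L adenine, each strain bearing a genome-integrated ochre-suppressor tRNA variant from a ~3% random-mutation library, a galactose-driven GFP ochre reporter, and RFP. After sorting into GFP/RFP bins, every bin was sequenced on an Illumina platform at phred ≥30. The GFPSEQ value, a measure of nonsense suppression, is the weighted bin median GFP/RFP relative to the unmutated parent tRNA, using each variant's estimated cell share per bin as the weight. Only variants with ≥100 reads and ≥30 cells were included.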

Nonsense suppression, ≤ 0.026:
CUCUCGGUAGCCAAGUUGGUUUAAGGCGCAAGACUUUAAUUUAUCACUACGAAAUAUUGAGAUCCGGCGUUCGACCCGCCCCCGGGAGAUUUUUUCCUCGAGCAA
CUCUCGGUAGCCAAGUUGGUUUAAGGCGCAAGACUUUAAUUUAUCACUACGAAAUAUUGAGAUCGAGCGUUCGACUCGCCCCCGGGAGCUUUUUUCCUCGAGCAA
CUCUCGGUAGCCAAGUUGGUUUAAGGCGCAAGACUUUAAUUUAUCACUACGAAAUAUUGAGAUCGGUCGUUCGACUCGCCCCCGGCAGAUUUUUUCCUCGAGCAA
CUCUCGGUAGCCAAGUUGGUUUAAGGCGCAAGACUUUAAUUUAUCACUACGAAAUAUUGAGAUCGGGCGUUCAACUCGCCCCCGGGAGAUUUUUUCCUCGAGCAA
CUCUCGGUAGCCAAGUUGGUUUAAGGCGCAAGACUUUAAUUUAUCACUACGAAAUAUUGAGAUCGGGCGUUCAACUCACCCCCGGGAGAUUUUUUCCUCGAGCAA
CUCUCGGUAGCCAAGUUGGUUUAAGGCGCAAGACUUUAAUUUAUCACUACGAAAUAUUGAGAUCGGGCGUUCCACUCGCCCCCGGGAGAUUUUUUCCUCGAGCAA
CUCUCGGUAGCCAAGUUGGUUUAAGGCGCAAGACUUUAAUUUAUCACUACGAAAUAUUGAGAUCGGGCGUUCGACUCGCCCCCCGGAGAUUUUUUCCUCGAGCAA
CUCUCGGUAGCCAAGUUGGUUUAAGGCGCAAGACUUUAAUUUAUCACUACGAAAUAUUGAGAUCGGGCGUUCGACUCGCCCCCGGUACAUUUUUUCCUCGAGCAA
CUCUCGGUAGCCAAGUUGGUUUAAGGCGCAAGACUUUAAUUUAUCACUACGAAAUAUUGAGAUCGGGCGUUCGACUCGCCCCCGGGAAAUUUUUUCCUCGAGCAA
CUCUCGGUAGCCAAGUUGGUUUAAGGCGCAAGACUUUAAUUUAUCACUACGAAAUAUUGAGAUCGGGCGUUCGACUCGCCCCCGGGAUAUUUUUUCCUCGAGCAA
CUCUCGGUAGCCAAGUUGGUUUAAGGCGCAAGACUUUAAUUUAUCACUACGAAAUAAUGAGAUCAGCCGUUCGACUCGCCGCCGGGAGAUUUUUUCCUCGAGCAA
CUCUCGGUAGCCAAGUUGGUUUAAGGCGCAAGACUUUAAUUUAUCACUACGAAAUACUGAGAUCGGGCGUUCGACUCGCCCCCGGGAGAUUUUUUCCUCGAGCAA
CUCUCGGUAGCCAAGUUGGUUUAAGGCGCAAGACUUUAAUUUAUCACUACGAAAUAUGAAGAGCGGGCGUUCGACUCGCCCCCGGGAGAUUUUUUCCUCGAGCAA
CUCUCGGUAGCCAAGUUGGUUUAAGGCGCAAGACUUUAAUUUAUCACUACGAAAUAUUGAGAGCGGGCGUUCGACUCGCGCCCGGGAGAUUUUUUCCUCGAGCAA
CUCUCGGUAGCCAAGUUGGUUUAAGGCGCAAGACUUUAAUUUAUCACUACGAAAUAUUGAGAUCGGGCGAUCGACUCGCCCCCGGGAGUUUUUUUCCUCGAGCAA
CUCUCGGUAGCCAAGUUGGUUUAAGGCGCAAGACUUUAAUUUAUCACUACGAAAUAUUGAGAUCGGGCGAUCUACUCGCCCCCGGGAGAUUUUUUCCUCGAGCAA
CUCUCGGUAGCCAAGUUGGUUUAAGGCGCAAGACUUUAAUUUAUCACUACGAAAUAUUGAGAUCGGGCGGUCGACUCGCCCCCGGGAGAUUUUUUCCUCGAGCAA
CUCUCGGUAGCCAAGUUGGUUUAAGGCGCAAGACUUUAAUUUAUCACUACGAAAUAUUGAGAUCGGGCGUGCGACUCGCCCACGGGAGAUUUUUUCCUCGAGCAA
CUCUCGGUAGCCAAGUUGGUUUAAGGCGCAAGACUUUAAUUUAUCACUACGAAAUAUUGAGAUCGGGCGUUCGACACGCCCCCGGGAGAUUUUUUCCUCGAGCAA
CUCUCGGUAGCCAAGUUGGUUUAAGGCGCAAGACUUUAAUUUAUCACUACGAAAUGUUGAGCUCGGGCGUUCGACUCGCCCCCGGGAGAUUUUUUCCUCGAGCAA
CUCUCGGUAGCCAAGUUGGUUUAAGGCGCAAGACUUUAAUUUAUCACUACGAAAUGUUGAGCUCGGGCGUUCGACUCGCCCCCGGGAGCUUUUUUCCUCGAGCAA
CUCUCGGUAGCCAAGUUGGUUUAAGGCGCAAGACUUUAAUUUAUCACUACGAAAUGUUGAGAUCGGGCGUUCGGCCAGCCCCCGGGAGAUUUUUUCCUCGAGCAA
CUCUCGGUAGCCAAGUUGGUUUAAGGCGCAAGACUUUAAUUUAUCACUACGAAAUGUUGAGAUCGGGCGUUAGACUCGCCCCCGGGAGAUUUUUUCCUCGAGCAA
CUCUCGGUAGCCAAGUUGGUUUAAGGCGCAAGACUUUAAUUUAUCACUACGAAAUGUUGAGAUCGGGCGUUCGACUAGCCCCCGGGAGAUUUUUUCCUCGAGCAA
CUCUCGGUAGCCAAGUUGGUUUAAGGCGCAAGACUUUAAUUUAUCACUACGAAAUGUUGAGAUCGGGCGUUCGACUCGUCCUCGGGAGAUUUUUUCCUCGAGCAA
CUCUCGGUAGCCAAGUUGGUUUAAGGCGCAAGACUUUAAUUUAUCACUACGAAAUGUUGAGAUCGGGCGUUCGACUCGCCCCAGGGAGAUUUUUUCCUCGAGCAA
CUCUCGGUAGCCAAGUUGGUUUAAGGCGCAAGACUUUAAUUUAUCACUACGAAAUGUUUAGAUCGGGCGUUCGACUCGCCCCCGGGAGAUUUUUUCCUCGAGCAA
CUCUCGGUAGCCAAGUUGGUUUAAGGCGCAAGACUUUAAUUUAUCACUACGAAAUGUUGAAAUCGGGCGUUCGACUCGCCCCGGGGAGAUUUUUUCCUCGAGCAA
CUCUCGGUAGCCAAGUUGGUUUAAGGCGCAAGACUUUAAUUUAUCACUACGAAAUGUUGACAUCGGGCGUUCGACUCGCCCCCGGGAUAUUUUUUCCUCGAGCAA
CUCUCGGUAGCCAAGUUGGUUUAAGGCGCAAGACUUUAAUUUAUCACUACGAAAUGUUGAUAUCGGGCGAUCGACUCGCCCCCGGGAGAUUUUUUCCUCGAGCAA
CUCUCGGUAGCCAAGUUGGUUUAAGGCGCAAGACUUUAAUUUAUCACUACGAAAUGUUGAGAUCAGGCGUUCGACUCGCCCCCGGGAGAUUUUUUCCUCGAGCAA
CUCUCGGUAGCCAAGUUGGUUUAAGGCGCAAGACUUUAAUUUAUCACUACGAAAUGUUGAGAUCGCGCGUUCGACUCGCCCCCGGGAGAUUUUUUCCUCGAGCAA
CUCUCGGUAGCCAAGUUGGUUUAAGGCGCAAGACUUUAAUUUAUCACUACGAAAUGUUGAGAUCGGUCGUUCGACUCGCCCCCGGGGGAUUUUUUCCUCGAGCAA
CUCUCGGUAGCCAAGUUGGUUUAAGGCGCAAGACUUUAAUUUAUCACUACGAAAUGUUGAGAUCGGGCCUUCGACUCGCCCCCGGGAGAUUUUUUCCUCGAGCAA
CUCUCGGUAGCCAAGUUGGUUUAAGGCGCAAGACUUUAAUUUAUCACUACGAAAUGUUGAGAUCGGGCCUUCGACGCGCCCCCGGGAGAUUUUUUCCUCGAGCAA
CUCUCGGUAGCCAAGUUGGUUUAAGGCGCAAGACUUUAAUUUAUCACUACGAAAUGUUGAGAUCGGGCGUUCGACUCACCCCCGGGAGAUUUUUUCCUCGAGCAA
CUCUCGGUAGCCAAGUUGGUUUAAGGCGCAAGACUUUAAUUUAUCACUACGAAAUGUUGAGAUCGGGCGUUCGACUCCACCCCGAGAGAUUUUUUCCUCGAGCAA
CUCUCGGUAGCCAAGUUGGUUUAAGGCGCAAGACUUUAAUUUAUCACUACGAAAUGGUGAGAUCGGGCGUUCGCCUCGCCCCCGGGAGAUUUUUUCCUCGAGCAA
CUCUCGGUAGCCAAGUUGGUUUAAGGCGCAAGACUUUAAUUUAUCACUACGAAAUGGUGAGAUCGGGCGUUCGACUUGCCCCCGGGAGAUUUUUUCCUCGAGCAA
CUCUCGGUAGCCAAGUUGGUUUAAGGCGCAAGACUUUAAUUUAUCACUACGAAAUGUAGAGAUCGGGCGUUCGACUCGCCCCCGGUAGAUUUUUUCCUCGAGCAA
CUCUCGGUAGCCAAGUUGGUUUAAGGCGCAAGACUUUAAUUUAUCACUACGAAAUGUGGCGAUCGAGCGUUCGACUCGCCCCCGGGAAAUUUUUUCCUCGAGCAA
CUCUCGGUAGCCAAGUUGGUUUAAGGCGCAAGACUUUAAUUUAUCACUACGAAAUGUGGAGAUCGGGCGUGCGACUUGCCCCCGGGAGAUUUUUUCCUCGAGCAA
CUCUCGGUAGCCAAGUUGGUUUAAGGCGCAAGACUUUAAUUUAUCACUACGAAAUGUUGAGAUCGGGCGUCCGACUCGCACCCGGGAGAUUUUUUCCUCGAGCAA
CUCUCGGUAGCCAAGUUGGUUUAAGGCGCAAGACUUUAAUUUAUCACUACGAAAUGUUGAGAUCGGGCGUCCGACUCGCUCCCGGGAGAUUUUUUCCUCGAGCAA
CUCUCGGUAGCCAAGUUGGUUUAAGGCGCAAGACUUUAAUUUAUCACUACGAAAUUUUGUGAUCGGGCGUUCGACACGCCCCCGGGAGAUUUUUUCCUCGAGCAA
CUCUCGGUAGCCAAGUUGGUUUAAGGCGCAAGACUUUAAUUUAUCACUACGAAAUUUUGAGAUCGGGCGUUCGUCUCGCCCCCGGGAGAUUUUUUCCUCGAGCAA
CUCUCGGUAGCCAAGUUGGUUUAAGGCGCAAGACUUUAAUUUAUCACUACGAAAUUUUGAGAUCGGGCGUUCGACUCGCCCCCGGGAGCUUUUUUCCUCGAGCAA
CUCUCGGUAGCCAAGUUGGUUUAAGGCGCAAGACUUUAAUUUAUCACUACGAAAUUUUGAGAUCGGGUGUUCGACUCGCCCCCGGGAGAUUUUUUCCUCGAGCAA
CUCUCGGUAGCCAAGUUGGUUUAAGGCGCAAGACUUUAAUUUAUCACUACGAAAUUUUCAGAUCUGGCGUUCGACUCGCCCCCGGGAGAUUUUUUCCUCGAGCAA
CUCUCGGUAGCCAAGUUGGUUUAAGGCGCAAGACUUUAAUUUAUCACUACGAAAUUUUUAGACCGGGCGUUCGACUCGCCCCCGGGAGAUUUUUUCCUCGAGCAA
CUCUCGGUAGCCAAGUUGGUUUAAGGCGCAAGACUUUAAUUUAUCACUACGAAAUUUUGACAUCGGGCGUUCGACUCGCCCGCGGGAGAUUUUUUCCUCGAGCAA
CUCUCGGUAGCCAAGUUGGUUUAAGGCGCAAGACUUUAAUUUAUCACUACGAAAUUUUGAGAUCGCGCGUUCGACGCGCUCCCGGGAGAUUUUUUCCUCGAGCAA
CUCUCGGUAGCCAAGUUGGUUUAAGGCGCAAGACUUUAAUUUAUCACUACGAAAUUUUGAGAUCGGGCAUUCGACUCGCCCCCGGGAGAUUUUUUCCUCGAGCAA
CUCUCGGUAGCCAAGUUGGUUUAAGGCGCAAGACUUUAAUUUAUCACUACGAAAUUUUGAGAUCGGGCGUUCGACUCGCCCCCAGGAGAUUUUUUCCUCGAGCAA

— the RNAGym collection of RNA variant scans (doi:10.1101/gad.245936.114)
